Measured values published in ChEMBL document CHEMBL1201862, “PubChem BioAssay data set” (2004).
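Tested at 5 concentrations; 48 h exposure; 96-well plates; endpoints linearly interpolated, else capped at highest concentration. GI50 is the concentration that inhibits growth by half.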 Calls of active or inactive are those of the source. Cut-off read from the data, not from the text of the source: active = GI50 up to about 1.1 µM and inactive = higher.

Test system: NCI-H322M
Assay: NCI anticancer screen, dose series, 48 h

| SMILES | GI50 |
| --- | --- |
| CC[C@]12C=CCN3CC[C@@]4(c5cc(Br)c(OC)cc5N(C)[C@H]4[C@@](O)(C(=O)N[C@@H](Cc4ccc(O)cc4)C(=O)OC)[C@@H]1O)[C@@H]32 | inactive: 3.85 µM |
| NC12CC3CC4C1CC1CC2C(C3)C4(N)C1 | inactive: > 100 µM |
| Cc1ccc([N+](=O)[O-])cc1S(=O)(=O)Nc1ccc(C(=O)/C=C/c2ccccc2)cc1 | inactive: 24.8 µM |
| C=C(CN(C)C)C(=O)c1ccccc1Cl | inactive: > 100 µM |
| O=C(CO)CC(=O)C(=O)Nc1ccccc1 | inactive: > 100 µM |
| NCCCOc1ccc([N+](=O)[O-])cc1Cl | inactive: > 100 µM |
| Nc1ccc(Nc2nc(F)nc(-c3c4ccccc4c4n3CCS4)n2)cc1 | inactive: 32.1 µM |
| O=C1C2C=CC1C1C(=O)OC(=O)C21 (stereo not given) | inactive: > 100 µM |
| CC(=O)c1sc(-c2nc(C)c(C(=O)/C=C\c3ccc(/C=C\C(=O)c4sc(-c5nc(C)c(C(C)=O)s5)nc4C)cc3)s2)nc1C | inactive: > 100 µM |
| Cn1ccc(C(=O)N2CCSC2=S)c(OCc2ccccc2)c1=O | inactive: > 100 µM |
| C/C(=N\NC(N)=S)c1nc2cccnc2[nH]1 | inactive: 65.5 µM |
| CC1=C[C@H]2C[C@@]3(C)O[C@@H]([C@]4(C)CC[C@H]([C@@H](C)C(=O)O)OO4)CC3C(C)(C)[C@H]2CC1 (stereo not given in full) | inactive: 2.4 µM |
| Cc1ncc([N+](=O)[O-])n1CCNC(=O)CCCn1ccnc1[N+](=O)[O-] | inactive: > 100 µM |
| COc1ccc(/C=C2\N=C(c3ccccc3)N(NC3=NC(=O)CC(=O)N3)C2=O)cc1 | inactive: > 100 µM |
| N#CCCC1(CCC#N)CCCCCCC(CCC#N)(CCC#N)C(O)C1O (stereo not given) | inactive: > 100 µM |
| COC(=O)C1=C(O)C(C(=O)OC)[C@@]2(O)[C@@H](C(=O)OC)[C@H](C)[C@@H](C)[C@@H]1[C@@H]2C(=O)OC (stereo not given in full) | inactive: > 100 µM |
| O=c1cc(-c2ccc(O)cc2)n(C2CC2)c2ccccc12 | inactive: 2.81 µM |
| CC(=O)OCC(C)C1=C(O)C(=O)C2(C)C/C=C(/C)CC/C=C(\C)CCC(O)C(C)CCC12 (stereo not given) | inactive: 16.8 µM |

| SMILES | GI50 |
| --- | --- |
| O=C1NC2(CCCC2)/C(=N\O)C12CCCC2 | inactive: > 100 µM |
| O=C(O)C(Cc1ccccc1)Cc1ccccc1 | inactive: > 100 µM |
| C=COC(=O)N[C@H]1CCc2cc(OC)c(OC)c(OC)c2-c2ccc(SC)c(=O)cc21 | active: < 0.01 µM |
| CC[C@H]1C=CCC[C@@]2(C[C@@H]3CC[C@H]4[C@H](C(=O)OCCCCCCCCCCCCCCCC(=O)N(CCCN)C[C@@H](O)CCN)[C@]5(CCC[C@@H](C)O5)NC(=[N+]34)N2)O1 | inactive: 1.17 µM |
| O=C1c2ccccc2-[n+]2ccc3c([nH]c4ccccc43)c21 [FASCAPLYSIN CHLORIDE] | active: 0.612 µM |
| O=C(CC1(O)C(=O)Nc2ccccc21)c1ccc(Cl)cc1Cl (stereo not given) | inactive: > 100 µM |
| O=c1c(NCc2ccccc2)c(C2(c3ccccc3F)SCCCS2)c1=O | inactive: > 100 µM |
| O=C(c1ccccc1)C(Nc1ccc2ccccc2c1)c1ccccc1 (stereo not given) | inactive: > 66.2 µM |
| C=C1CC(COc2ccc3c(C)cc(=O)oc3c2)(c2ccccc2)OC1=O (stereo not given) | inactive: 11.5 µM |
| CC(=O)Oc1ccc(C(c2ccc(OC(C)=O)cc2)c2ccccn2)cc1 [BISACODYL] | inactive: 2.36 µM |
| CC1Cc2c(N)nc(NN)nc2NC1=O (stereo not given) | inactive: > 100 µM |
| O=C1OCC(O)=C1C(c1ccc(Cl)cc1)c1cc2c(cc1O)OCO2 (stereo not given) | inactive: > 100 µM |
| O=C(O)C(Br)Cc1ccc2c(c1)OCO2 (stereo not given) | inactive: > 100 µM |
| COC(=O)c1ccccc1CC1Cc2c(C)ccc(C)c2C1=O (stereo not given) | inactive: 52.1 µM |
| Cc1ccc(C(=O)C(C2=Nc3nnc(N)n3C2=O)C2=Nc3nnc(N)n3C2=O)cc1 | inactive: > 100 µM |
| NCCNCCCNC(=O)c1cc(-c2ccccc2)nc2ccccc12 | inactive: 46.8 µM |
| CC1=CC(=O)/C(=C/N2CCNC2=S)C(=O)O1 | inactive: > 100 µM |
